Data from paper PMC8964761, “Crystal structure and cellular functions of uPAR dimer” (Nature Communications, 2022).

Legend:
[1] = target: the molecule itself; experiment: SEC; suPAR dissolved at 0.25, 1, 4 or 16 mg/mL at pH 4.6 or pH 7.4, 4 °C for one day; Superdex 200 10/300, 20 mM Tris pH 7.4, 150 mM KCl; monomer to dimer
[2] = target: T1, full-length single-chain uPA (scuPA) (UniProt P00749); experiment: SPR; Biacore T200; suPAR monomer or dimer captured on anti-uPAR antibody immobilised on a CM5 chip; ATF (0.14-33.3 nM) or scuPA (0.54-44.4 nM) flowed over; 10 mM HEPES, 150 mM NaCl, 3 mM EDTA, 0.005% P-20, pH 7.4, 20 °C; 1:1 Langmuir fit; settings: both partners purified
T1 construct: Secreted protein; source: Drosophila S2 cells, secreted, purified (SPFF, C8 reverse phase HPLC)

B1: soluble uPAR (suPAR), monomer (receptor)
chain: not shown
notes: N-glycosylated; A selenomethionine-substituted preparation was used for phasing of the low-pH crystal structure; also called monomeric suPAR; monomeric uPAR; source: lyophilized
stoichiometry N [1]: 2 | Kd [2]: 0.149 nM
